According to PubChem BioAssay AID1345083 (National Center for Advancing Translational Sciences (NCATS), 2018):
The whole screen tested about 94,000 compounds, of which about 6,200 (6.6%) were called active. The inconclusive results got no clear call from the source; some entries with a clear call stand among them for comparison. Calls follow the shape of the dose curve; as a rule, active = well fitted inhibition curve with a large enough effect; inconclusive = small, poorly fitted or top-dose-only effect; inactive = flat fitted curve, though single readings scatter. Potencies beside an inconclusive call are fits to weak or partial responses and may not hold up.

Experiment: Cytotoxic Profiling in HEK 293 Cell Line of Diverse Libraries Using Quantitative High-Throughput Screening; also: nearly all actives have a fitted effect of over 60% in size
Conditions: HEK 293 viability, ATP luminescence (CellTiter-Glo), 48-72 h; activity change, negative = cytotoxicity: at 115 µM (top of the series) unless noted; series mostly up to 115 µM
How it was run: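 qHTS cytotoxicity; HEK 293, 250 cells/well; compound pinned; 48 or 72 hr, 37 degree Celsius, 5% CO2, 95% humidity; CellTiter-Glo, 10 min RT; luminescence (ATP).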
% is scaled to controls: 0 for no effect and ±100 for the full control effect; potency is read from the fitted curve at half-maximal effect; tags tell the direction and shape of the fitted curve.

Question: For `O=C1CC(c2nc(-c3ccc4nc[nH]c4c3)no2)CN1Cc1cccnc1` (stereo unspecified), which “activity change, negative = cytotoxicity” value is on record?
Answer: inactive: -5.59%

Question: For `O=C(Nc1ccc(Cl)cc1Cl)c1ccc2cncn2c1`, which Potency is on record?
Answer: inconclusive: 100 µM [inhibitor, partial curve, poor fit]

Question: With `O=C(CNC(=O)c1ccc(-c2cccc(C(F)(F)F)c2)cc1)NCCc1ccc(Cl)cc1` as the compound, how does the “activity change, negative = cytotoxicity” value read?
Answer: inactive: -16.6%

Question: With `O=C1NC2(CCN(Cc3cccnc3)CC2)COc2ccccc21` as the compound, how does the Potency read?
Answer: inconclusive: 126 µM [inhibitor, single point]

Question: With `Cc1nc2c(c(-c3ccc(O)cc3)n1)CN(Cc1ccc(OC(F)(F)F)cc1)CC2` as the compound, how does the Potency read?
Answer: inconclusive: 44.7 µM [inhibitor, partial curve, poor fit]

Question: For `CC1(C(=O)NCCCn2ccnc2)CCCc2cnc(Nc3ccccc3)nc21` (stereo unspecified), which Potency is on record?
Answer: inconclusive: 100 µM [inhibitor, partial curve]

Question: Which “outcome” value does the source give for `O=C(C1CCCN1C(=O)c1ccc(Cl)nc1)N1CCC(N2Cc3ccccc3C2=O)CC1` (stereo unspecified) here?
Answer: inactive

Question: Which Potency does the source give for `Cc1nc2cccnc2n1CC1CCCN(S(=O)(=O)c2ccc3c(c2)CCC3)C1` (stereo unspecified) here?
Answer: inconclusive: 44.7 µM [inhibitor, partial curve, poor fit]

Question: With `O=C(Nc1cc(-c2ccncc2)nn1-c1ccccc1)c1ccc(C(F)(F)F)cc1` as the compound, how does the Potency read?
Answer: inconclusive: 35.5 µM [inhibitor, full curve, poor fit]

Question: With `O=C(NC1CCCc2c1[nH]c1c(Cl)cccc21)c1n[nH]c2c1CCC2` (stereo unspecified) as the compound, how does the Potency read?
Answer: inconclusive: 39.8 µM [inhibitor, partial curve, poor fit]

Question: For `CCOC(=O)[C@@H]1[C@@H](O)C(=O)N(Cc2ccccc2)C12CCN(C(=O)OCc1ccccc1)CC2`, which Potency is on record?
Answer: inconclusive: 39.8 µM [inhibitor, partial curve, poor fit]

Question: With `COc1ccc(CNC(=O)c2cc3c(s2)CCN(C(=O)c2ccccc2)C3)cc1OC` as the compound, how does the Potency read?
Answer: inconclusive: 31.6 µM [inhibitor, partial curve, poor fit]

Question: Which “activity change, negative = cytotoxicity” value does the source give for `O=C(CCc1c[nH]c2ccccc12)N1CCC(N2C(=O)C(O)C23CCCCC3)CC1` (stereo unspecified) here?
Answer: inactive: -8.22%

Question: For `O=C1Nc2ccccc2O[C@H]2C[C@@H]1N(Cc1ccccc1Cl)C2`, which Potency is on record?
Answer: inconclusive: 89.1 µM [inhibitor, partial curve]

Question: Which Potency does the source give for `CC(=O)N[C@H]1CC[C@]2(C)CCC([C@H](C)C(=O)NCc3ccc(F)cc3)[C@H](O)[C@H]2[C@@H]1C` (stereo partly specified) here?
Answer: inconclusive: 100 µM [inhibitor, partial curve, poor fit]

Question: For `COCc1nc2nc(-c3ccccc3)c(-c3ccccc3OC)cc2n1C`, which Potency is on record?
Answer: inconclusive: 100 µM [inhibitor, partial curve, poor fit]
